24 compounds from PMC4336329 (PLoS ONE, 2015) can be followed below.

The campaign covered roughly 310,000 compounds. About 14,000 (4.5%) showed an effect of 50% or more. The effect is printed as a negative number. Some of the results follow.
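Note: peak tail current of the secondary pulse compared with the same well before compound.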

For the assay, the target named is human ether-à-go-go-related gene (hERG) potassium channel (human, UniProt Q12809). Briefly: primary screen, population patch clamp on CHO cells stably expressing hERG.
human ether-à-go-go-related gene (hERG) potassium channel, sequence (Q12809 whole entry, looked up): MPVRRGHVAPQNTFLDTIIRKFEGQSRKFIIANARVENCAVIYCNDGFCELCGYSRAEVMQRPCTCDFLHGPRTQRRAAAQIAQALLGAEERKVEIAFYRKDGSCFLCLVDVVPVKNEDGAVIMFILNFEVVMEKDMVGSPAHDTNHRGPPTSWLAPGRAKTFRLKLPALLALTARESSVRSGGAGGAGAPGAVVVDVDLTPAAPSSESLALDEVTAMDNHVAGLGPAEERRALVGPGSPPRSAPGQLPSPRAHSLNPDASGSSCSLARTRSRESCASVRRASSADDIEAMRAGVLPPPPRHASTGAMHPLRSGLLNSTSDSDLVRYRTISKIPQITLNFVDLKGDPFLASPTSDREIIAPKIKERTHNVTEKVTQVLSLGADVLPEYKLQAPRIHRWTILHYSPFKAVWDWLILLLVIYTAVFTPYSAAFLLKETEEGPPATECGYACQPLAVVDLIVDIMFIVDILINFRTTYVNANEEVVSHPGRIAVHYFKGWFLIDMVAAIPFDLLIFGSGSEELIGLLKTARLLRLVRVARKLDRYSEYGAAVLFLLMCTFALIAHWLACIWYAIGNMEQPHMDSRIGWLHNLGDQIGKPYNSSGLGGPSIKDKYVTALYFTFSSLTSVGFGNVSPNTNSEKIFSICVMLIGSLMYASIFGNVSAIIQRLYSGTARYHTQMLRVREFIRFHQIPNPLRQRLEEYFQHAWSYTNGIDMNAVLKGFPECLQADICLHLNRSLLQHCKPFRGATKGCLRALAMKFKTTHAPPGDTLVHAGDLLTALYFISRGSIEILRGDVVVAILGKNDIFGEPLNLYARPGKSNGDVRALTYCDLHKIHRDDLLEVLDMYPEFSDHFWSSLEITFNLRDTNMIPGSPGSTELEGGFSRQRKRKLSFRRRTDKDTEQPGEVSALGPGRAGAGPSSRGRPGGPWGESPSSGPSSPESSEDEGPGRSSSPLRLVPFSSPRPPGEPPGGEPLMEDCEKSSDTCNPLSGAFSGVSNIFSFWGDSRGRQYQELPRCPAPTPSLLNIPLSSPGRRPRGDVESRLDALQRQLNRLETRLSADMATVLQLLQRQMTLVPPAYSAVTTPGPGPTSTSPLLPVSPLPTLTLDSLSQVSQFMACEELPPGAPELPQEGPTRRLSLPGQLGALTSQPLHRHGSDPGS
As for `Cc1cccc(CCNC(=O)CCS(=O)(=O)c2cc3c(cc2Cl)NC(=O)CO3)c1`, the “hERG current change (%, negative = inhibition) at 10uM” value is 3.71%.
As for `O=C(Cn1nnc(-c2ccc(Cl)cc2)n1)NC1CC2CCC1C2` (stereo not drawn), the figure is 11.7%; as for `CSc1ccc(CN(C)C(=O)CNC(=O)c2ccc3c(c2)OCO3)cc1`, -3.55%; as for `O=C(NCc1ccco1)c1cccc(S(=O)(=O)N2CCc3ccccc32)c1`, -9.6%.
For `O=c1[nH]c(C2CCN(S(=O)(=O)c3ccc(S(=O)(=O)NC4CC4)cc3)CC2)nc2c1nnn2Cc1ccccc1`, the “hERG current change (%, negative = inhibition) at 10uM” value amounted to 23.5%.
As for `CN(C)N1C(N)=C(C#N)C(c2cccc3ccccc23)C2=C1CC(c1ccccc1)CC2=O` (stereo not drawn), the figure is -0.28%; as for `Cc1nc2ccc(N)cc2s1`, -0.603%.
As for `Cc1ccc(OCCn2c(CCNC(=O)C(C)C)nc3ccccc32)cc1`, the “hERG current change (%, negative = inhibition) at 10uM” value was 1.88%.
On to `CCc1ccc(C2NC(=S)NC3=C2C(=O)CCC3)cc1` (stereo not drawn), for which the “hERG current change (%, negative = inhibition) at 10uM” value turned out to be 11.3%.
As for `COc1cc(/C=C/c2ccc(O)cc2)cc(OC)c1`, the figure is -2.2%; as for `CCCCN(C(=O)c1cccc(S(=O)(=O)N2CCN(Cc3ccccc3)CC2)c1)c1ccccc1`, 12.5%.
As for `CCn1c(SCC(=O)NCc2cccs2)nc2c1c(=O)n(C)c(=O)n2C`, the figure is -34.9%; as for `O=C(c1cncc(Br)c1)N1CCN(S(=O)(=O)c2ccc(Cl)cc2)CC1`, -44.3%.
As for `O=C(CSc1nccc(=O)[nH]1)Nc1ccc(N2CCOCC2)c(Cl)c1`, the figure is 15.3%; as for `O=C(COC(=O)c1ccc(Br)cc1)Nc1ccccc1Br`, 15.9%.
For the compound `Nc1n[nH]c(N)c1N=Nc1cccc(F)c1`, the “hERG current change (%, negative = inhibition) at 10uM” value was found to be 2%.
With `Cc1cc(NC(=S)N(CCN2CCCCC2)Cc2ccco2)ccc1Cl` the figure was -55.3%.
As for `CCCCCc1nnc(NC(=O)Cc2ccc([N+](=O)[O-])cc2)s1`, the figure is 23.7%; as for `O=c1c2c(-c3ccco3)csc2nc(SCc2cn3cccnc3n2)n1-c1ccccc1`, -44.1%; as for `O=C(c1ccccc1)c1ccc(N2CCOCC2)c(NC(=O)c2ccco2)c1`, -46.3%.
In the case of `CC(C)(C)NC(=O)NC(=O)CN1CCN(c2ncc(C(F)(F)F)cc2Cl)CC1`, the “hERG current change (%, negative = inhibition) at 10uM” value is -13.3%.
As for `Cc1ccccc1C(=O)Nc1ccccc1`, the figure is -9.89%; as for `CC(C)OC(=O)c1cc(NC(=O)C2C3CCC(O3)C2C(=O)O)cc(C(=O)OC(C)C)c1` (stereo not drawn), 0.691%.
With `COc1ccc(OC)c(C2C(C#N)=C(N)Oc3c2c(C)nn3-c2ccc(C)cc2)c1` (stereo not drawn) the figure was 3.33%.
